From the supplement of paper PMC3334620
Whole data set: some 33,000 sequences, median “E-score (-0.5 to 0.5)” near -0.043, cut for the highest 2% near 0.37. The list shows a part of the results.

biological target: T1, Upc2 (UniProt Q12151); assay: PBM E-score (8-mer binding enrichment) (E-score (-0.5 to 0.5)); higher = stronger / more preferred TF binding; most listed sequences are background and not binding sites; details: protein concentration: 200 nM; construct: GST-full length
T1 sequence: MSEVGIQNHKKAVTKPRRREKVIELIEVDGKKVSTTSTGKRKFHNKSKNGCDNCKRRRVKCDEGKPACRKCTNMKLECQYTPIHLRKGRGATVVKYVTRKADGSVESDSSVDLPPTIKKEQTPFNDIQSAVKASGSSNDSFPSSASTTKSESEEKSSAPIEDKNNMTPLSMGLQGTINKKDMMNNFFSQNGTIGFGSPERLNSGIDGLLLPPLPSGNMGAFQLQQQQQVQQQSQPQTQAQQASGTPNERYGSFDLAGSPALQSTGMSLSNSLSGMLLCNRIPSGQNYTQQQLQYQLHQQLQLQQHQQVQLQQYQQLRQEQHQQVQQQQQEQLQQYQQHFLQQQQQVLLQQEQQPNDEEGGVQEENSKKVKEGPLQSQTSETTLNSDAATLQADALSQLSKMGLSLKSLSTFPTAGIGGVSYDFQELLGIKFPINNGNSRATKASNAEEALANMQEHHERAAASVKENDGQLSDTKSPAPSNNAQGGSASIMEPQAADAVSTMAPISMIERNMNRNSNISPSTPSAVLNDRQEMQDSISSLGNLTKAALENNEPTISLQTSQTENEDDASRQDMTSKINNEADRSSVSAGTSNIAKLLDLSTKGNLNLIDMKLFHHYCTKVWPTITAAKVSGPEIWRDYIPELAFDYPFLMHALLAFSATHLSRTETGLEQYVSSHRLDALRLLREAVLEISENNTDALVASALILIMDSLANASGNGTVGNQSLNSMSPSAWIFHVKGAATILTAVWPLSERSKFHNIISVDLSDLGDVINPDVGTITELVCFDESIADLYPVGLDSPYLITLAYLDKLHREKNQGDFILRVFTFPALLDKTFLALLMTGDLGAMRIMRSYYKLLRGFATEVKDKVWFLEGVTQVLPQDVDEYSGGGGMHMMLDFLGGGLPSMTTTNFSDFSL
Summary of the method: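 Yeast transcription factors, full-length or as DNA-binding domains, were expressed with a GST tag using PURExpress in vitro transcription/translation. At about 100-200 nM they were applied to universal all-10-mer Agilent arrays, double-stranded by primer extension on fresh or once-stripped slides. Fluorescent anti-GST detected bound protein, and masliner normalised the scans. E-scores for ungapped eight-base words, pooled with reverse complements, came from the Universal PBM Analysis Suite.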

Row | Sequence | PBM E-score
1 | AGATCCTC | 0.112
2 | ACCATGAG | -0.0554
3 | CAATGAAC | 0.077
4 | ACACCACG | -0.0964
5 | ATTATGGC | -0.176
6 | CAAAATGA | -0.116
7 | GTGGTATA | 0.0869
8 | AACATAAT | 0.0318
9 | CCTTATCC | -0.109
10 | CCCCCTGA | -0.297
11 | ACGAGCAA | 0.326
12 | AGGGGGCA | -0.253
13 | CGATCCCA | 0.0331
14 | AAGAAACT | -0.0808
15 | ATCTGTTA | 0.0137
16 | ACAATTCC | -0.355
17 | ACAACGAA | 0.195
18 | CGCCGAAG | -0.0603
19 | ACCACTGG | -0.0523
20 | GCCCAGGC | -0.233
21 | ACTGCAAT | -0.0195
22 | ACTCGCGA | 0.183
23 | GACGCGCC | 0.176
24 | AGCAGCAG | -0.132
25 | CGACCACA | 0.121

Row | Sequence | PBM E-score
26 | CTACGGAG | -0.138
27 | GCCAGACC | -0.138
28 | CAAGCTAC | -0.00047
29 | AGGGCTTG | -0.106
30 | CGGGATAG | -0.0352
31 | AGCTGGAG | -0.00115
32 | ATGCGCCC | -0.105
33 | CGTTGGGA | 0.0328
34 | GACAGTAA | -0.0697
35 | TGAATAAA | 0.0883
36 | ATGAAGGG | -0.0382
37 | CTACGTCA | -0.0626
38 | CACGTTAG | -0.145
39 | CACCAATC | -0.249
40 | ACGAGTCT | 0.293
41 | CTGGCAGA | -0.107
42 | CCGTGTCG | -0.0027
43 | ACAGAGCC | -0.276
44 | GTCAACTA | -0.294
45 | ACAGCGGT | -0.15
46 | GGCGTTAA | 0.161
47 | ATCACGGA | -0.0106
48 | AATACGCG | 0.19
49 | CCCCTATA | 0.0494
50 | TATCATCA | -0.0809

Row | Sequence | PBM E-score
51 | ACTCGATA | 0.0839
52 | CATCGAAA | 0.0196
53 | AATGTCGG | 0.139
54 | AGAGCGCG | 0.0869
55 | ATCTCAAC | 0.0568
56 | CCCTATTA | -0.181
57 | ACAGGGTG | -0.155
58 | CAGGCCAA | -0.22
59 | CCAAAGCG | -0.125
60 | ATATTGGG | 0.0143
61 | AGTTAACT | -0.14
62 | CATGTCAA | -0.0832
63 | GAATCAGC | -0.265
64 | AATGACCC | -0.157
65 | AAACAGTA | 0.116
66 | GCATATGA | 0.0441
67 | AATGGGCG | -0.0334
68 | AAGAGTTA | -0.0945
69 | CGAGCCTA | 0.146
70 | GTCACCAA | -0.183
71 | AATGGGGA | -0.0507
72 | TGGGGGAA | -0.277
73 | CCACGGTA | -0.099
74 | ACGCGCTG | 0.0918
75 | GACACAAC | -0.112

Row | Sequence | PBM E-score
76 | AGCTCGTG | 0.107
77 | GCCTCCAC | -0.0944
78 | ACCGATCC | -0.0521
79 | CTGCACGA | 0.102
80 | AAACGTTT | 0.281
81 | CCTTTAGC | -0.00828
82 | CATACCGC | 0.00223
83 | CTGTGCCC | -0.219
84 | AGTGTTCA | -0.2
85 | GAGGAGAC | -0.108
86 | ACCCGTCC | -0.303
87 | TCCTAGAA | -0.105
88 | ATAGGGCC | -0.167
89 | TCCGGGCA | 0.161
90 | CCGAGTTC | 0.126
91 | CCTCGATC | 0.0193
92 | CGATACGC | 0.267
93 | GAAACCAA | -0.176
94 | AAGCGCGC | 0.152
95 | ACGTGCTG | 0.0659
96 | AGGGTTAT | -0.156
97 | CCATGAGA | -0.131
98 | GCTATGTA | -0.143
99 | AATATGGC | -0.0605
100 | AGTGCACA | 0.0223

Row | Sequence | PBM E-score
101 | CAAAATGC | -0.0081
102 | AGCCTGTC | 0.0666
103 | ATTCTACA | -0.111
104 | AGAGGGCC | -0.0273
105 | AAATTGGG | 0.00764
106 | TACTTAGA | 0.00361
107 | ACCAGGCA | -0.248
108 | CTAACGCC | 0.0311
109 | GTGGGATA | 0.0222
110 | ATCAGTGG | -0.214
111 | ACATTGGG | -0.0677
112 | TTGATCAA | 0.0218
113 | ACGGACGA | 0.0286
114 | CAGTAACA | -0.0459
115 | CCAAGCCC | -0.0688
116 | GTTGCGGA | 0.0539
117 | CTTTTATA | 0.0638
118 | TACAACCA | -0.0982
119 | ACGAATCC | 0.335
120 | AGCTCTCC | -0.142
121 | CCGCAGTC | 0.0832
122 | CCTTACAG | -0.114
123 | AGAGAGCC | -0.133
124 | ATGTTTTA | 0.0561
125 | AGCATCTG | -0.0337

Row | Sequence | PBM E-score
126 | TAACCTGA | 0.0333
127 | AATGGCGG | -0.25
128 | CTCAAACC | -0.177
129 | ATGCTGCG | -0.176
130 | CACAGTAG | 0.136
131 | CCATCTTA | 0.0595
132 | CGAGGGAG | 0.0244
133 | ACTAGTTG | -0.244
134 | GTACAGAC | 0.239
135 | AATCGGTC | 0.0916
136 | CCCTCTGC | -0.211
137 | CCGATACA | 0.159
138 | ATGTAGAG | -0.1
139 | ATCCATCG | 0.166
140 | CCCTCTAG | -0.247
141 | CACAATGA | -0.0947
142 | CAAAATTG | -0.022
143 | AAGTCTGG | -0.0137
144 | ATCATATG | -0.0228
145 | CAGCAGCA | -0.132
146 | AGTCTGCA | -0.153
147 | GATAACGA | 0.17
148 | GACTCGCA | -0.0142
149 | TAGGGGCA | -0.154
150 | CGGATGAA | 0.0727

Row | Sequence | PBM E-score
151 | CTTTAAAC | 0.182
152 | GCTCTTCA | -0.134
153 | CATACTCA | -0.0484
154 | AACCCGGC | 0.145
155 | AGTCGGGA | 0.0265
156 | GACTGCGC | -0.0278
157 | CCATAGCA | -0.372
158 | ATAAAACA | 0.13
159 | ACCTCGTA | 0.462
160 | CGCCACAC | -0.0158
161 | GCAGGACA | -0.103
162 | CCTCGCTA | 0.22
163 | CTGTTACA | -0.0866
164 | ATATAAGA | 0.22
165 | ACCCGTTA | 0.277
166 | AAATAAGA | 0.0703
167 | AAGCGCTG | 0.0818
168 | CTCAAGGA | -0.354
169 | TCAGCCGA | -0.0752
170 | ACCCATAG | -0.228
171 | AAGACCTC | -0.232
172 | AGTGATAA | -0.004
